{"source": "PubChem BioAssay AID652104", "about": "(National Center for Advancing Translational Sciences (NCATS), 2013)", "note": "In all, about 410,000 compounds went through this assay and about 7,200 (1.8%) were called active. Inconclusive means that the source gave no clear call. Such entries were picked first, then a sample of the others. Calls come from the whole dose curve; as a rule, active = well fitted activation curve with a large enough effect; inconclusive = small, poorly fitted or top-dose-only effect, or another doubt; inactive = no such curve, though single readings can be large or run the other way. No potency is given beside an inconclusive call; the fits are too rough."}
{"test": "qHTS of TDP-43 Inhibitors; note: nearly all actives have a fitted effect of over 50% in size; note: potency is the fitted concentration of half-maximal effect; tags give direction and shape of the fitted curve; for growth rescue (activation): % of control where 0% means no effect", "conditions": "TDP-43 expressing yeast growth rescue, BacTiter-Glo, 24 h; growth rescue (activation): at 46.1 µM (top of the series) unless noted", "procedure,_shortened": "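Yeast cells expressing TDP-43 under galactose induction are exposed to compounds for 24 hr at 30 deg C. BacTiter-Glo luminescence measures growth, so protective compounds score as activators.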"}
{"molecule": "O=C(NCC1CCCO1)c1cccc(Oc2c(Cl)cccc2[N+](=O)[O-])c1", "note": "(configuration not stated)", "Potency": "inconclusive [activator, full curve, poor fit]"}
{"molecule": "COc1ccc(/C=C/C(=O)CC(O)(c2ccccc2)C(F)(F)F)cc1", "note": "(configuration not stated)", "Potency": "inconclusive [activator, single point]"}
{"molecule": "CCOC(=O)Cn1c(=N)n(Cc2ccc(C(C)(C)C)cc2)c2ccccc21", "Potency": "inconclusive [activator, single point]"}
{"molecule": "CCN(CC)c1ccc(C(=O)OCC(=O)N(C)Cc2ccccc2)cc1", "Potency": "inconclusive [activator, partial curve]"}
{"molecule": "O=C(C1=C[C@@H](c2ccc(Br)cc2)C[C@@H](OCc2ccc(CO)cc2)O1)N1CCOCC1", "Potency": "inconclusive [activator, single point]"}
{"molecule": "NC(Cc1ccc(Cl)cc1)c1csc(Nc2ccc(-c3ccccc3)nn2)n1", "note": "(configuration not stated)", "Potency": "inconclusive [activator, partial curve, poor fit]"}
{"molecule": "CCc1nc2c(OCC(N)=O)cccn2c1N(C)C(=O)c1cccs1", "growth rescue (activation)": "inactive: 13.2%"}
{"molecule": "CCOC(=O)[C@@H]1[C@H]2COc3cc(OC)ccc3[C@@H]2N2C(=O)N(c3ccc(Cl)cc3)C(=O)[C@]12C", "growth rescue (activation)": "inactive: 6.94%"}
{"molecule": "COc1nc(N/N=C/c2cc3c(cc2Br)OCO3)nc(N2CCOCC2)n1", "Potency": "inconclusive [activator, single point]"}
{"molecule": "CCCOC(=O)c1cccc(Nc2nc(CCC)cc(=O)[nH]2)c1", "Potency": "active: 17.8 µM"}
{"molecule": "CCc1ccccc1NC(=S)N1CCN(c2cccc(OC)c2)CC1", "Potency": "inconclusive [activator, single point]"}
{"molecule": "O=C(Cn1c(=O)sc2ccccc21)NCCOc1ccccc1F", "growth rescue (activation)": "inactive: 15.2%"}
{"molecule": "COc1ccc(C(C#N)c2ccc(Cl)nn2)cc1", "note": "(configuration not stated)", "growth rescue (activation)": "inactive: 22.9%"}
{"molecule": "Cc1ccc(CSCC(=O)N/N=C/c2sccc2C)cc1", "Potency": "inconclusive [activator, single point]"}
{"molecule": "c1ccc(CNc2ncnc3sc4c(c23)CCCC4)nc1", "Potency": "active: 12.6 µM"}
{"molecule": "CNC(=O)C1CCC(Cn2c(=O)c3sccc3n(Cc3cc(C)ccc3C)c2=O)CC1", "note": "(configuration not stated)", "growth rescue (activation)": "inactive: 10%"}
{"molecule": "COC(CNC(=O)c1cnn2c(C)c(Cc3ccccc3)c(C)nc12)OC", "growth rescue (activation)": "inactive: 2.59%"}
{"molecule": "COC(=O)c1cccc(N2C(=O)c3ccccc3S2(=O)=O)c1", "Potency": "inconclusive [activator, single point]"}
{"molecule": "COc1ccc(-c2nc3nc(C)cc(C)n3c2Nc2c(C)cccc2C)cc1", "Potency": "inconclusive [activator, partial curve]"}
{"molecule": "CC(NC(=O)/C(C#N)=C/c1cccs1)c1ccccc1", "note": "(configuration not stated)", "Potency": "inconclusive [activator, single point]"}
{"molecule": "COc1ccc(Nc2nc(C(=O)NCc3ccco3)cs2)cc1", "Potency": "inconclusive [activator, single point]"}
{"molecule": "Cc1cccc(-c2cc(C(=O)NCc3ccccn3)c3ccccc3n2)c1", "Potency": "active: 35.5 µM"}
{"molecule": "CC1=C(C(=O)Nc2cccnc2)C(c2ccc(F)cc2)n2nc(-c3cccc(C)c3)nc2N1", "note": "(configuration not stated)", "Potency": "inconclusive [activator, single point]"}
{"molecule": "O=C1c2ccccc2C(=O)c2cc(NC(=O)C3CC3)ccc21", "Potency": "inconclusive [activator, full curve, poor fit]"}
{"molecule": "O=S(=O)(c1cccc(COc2ccc(Cl)cc2Cl)c1)N1CCOCC1", "Potency": "inconclusive [activator, partial curve]"}
{"molecule": "CCCS(=O)(=O)N1CCc2ccc(NC(=O)C3CCCO3)cc2C1", "note": "(configuration not stated)", "Potency": "inconclusive [activator, full curve, poor fit]"}
{"molecule": "CCc1ccccc1NC(=O)Cn1nc2c3cc(F)ccc3n(Cc3cccc(C)c3)cc-2c1=O", "growth rescue (activation)": "inactive: 14.9%"}
{"molecule": "O=C1C=C(c2ccc(O)cc2)C[C@@H](c2ccc3c(c2)OCO3)C1", "growth rescue (activation)": "inactive: 12%"}
{"molecule": "O=S(=O)(c1ccc2ccccc2c1)N1CCCCCC1", "Potency": "inconclusive [activator, partial curve]"}
{"molecule": "Oc1ccccc1-c1nc(-c2cccs2)c(-c2cccs2)[nH]1", "growth rescue (activation)": "inconclusive: -73.5% [activator]"}
{"molecule": "Oc1cccc(-n2nnnc2SCc2ccccc2F)c1", "Potency": "active: 22.4 µM"}
{"molecule": "Cc1ccc(S(=O)(=O)N(C)C[C@@H]2Oc3ccc(NS(=O)(=O)c4ccccc4)cc3CC(=O)N([C@@H](C)CO)C[C@H]2C)cc1", "growth rescue (activation)": "inactive: 8.87%"}
{"molecule": "CN1CCSc2ccc(C(=O)NCc3cccc(Br)c3)cc21", "Potency": "active: 15.8 µM"}
{"molecule": "CCOC(=O)C1(C)CCN1C(=O)c1ccc(C(C)(C)C)cc1", "note": "(configuration not stated)", "Potency": "inconclusive [activator, partial curve]"}
{"molecule": "Cc1cccc(-n2ccnc2SCC(=O)Nc2cccc3ccccc23)c1", "Potency": "active: 22.4 µM"}
{"molecule": "CCCOc1ccc(C(=O)NNC(=S)NC(=O)c2ccccc2[N+](=O)[O-])cc1", "Potency": "inconclusive [activator, partial curve]"}
{"molecule": "N#Cc1ccccc1CSCCNC(=O)Cc1c(F)cccc1Cl", "Potency": "inconclusive [activator, single point]"}
{"molecule": "COc1ccc(Nc2nc(-c3sc(C)nc3C)cs2)c(OC)c1", "Potency": "active: 15.8 µM"}
{"molecule": "O=C(c1cc2ccccc2o1)N1CCN(c2ccccc2Cl)CC1", "Potency": "inconclusive [activator, single point]"}
{"molecule": "CCn1ccc2cc(S(=O)(=O)N3CCCN(C(=O)Nc4ccccc4F)CC3)ccc21", "Potency": "inconclusive [activator, single point]"}
{"molecule": "CCc1nc2ccc(C(=O)N3CCN(c4ccc([N+](=O)[O-])cc4)CC3)cc2nc1CC", "Potency": "inconclusive [activator, partial curve]"}
{"molecule": "O=C(CSc1nnc(-c2ccc3c(c2)OCO3)o1)Oc1ccccc1", "growth rescue (activation)": "inactive: -49%"}
{"molecule": "NNC(=O)c1cccc(COc2ccc(Br)cc2)c1", "Potency": "inconclusive [activator, single point]"}
{"molecule": "CCOC(=O)Cc1csc(NC(=O)c2cccc(Cl)c2)n1", "Potency": "inconclusive [activator, partial curve]"}
{"molecule": "COc1ccccc1NC(=O)c1cc2c(=O)n(C)c3ccccc3c2n1C", "growth rescue (activation)": "inactive: -5.99%"}
{"molecule": "CCOc1cc(C2c3c(-c4cc(C)ccc4O)n[nH]c3C(=O)N2CCCOC(C)C)ccc1O", "note": "(configuration not stated)", "growth rescue (activation)": "inactive: 12%"}
{"molecule": "CCOC(=O)C1CCCN(S(=O)(=O)c2cc(-c3cc(C)no3)ccc2OC)C1", "note": "(configuration not stated)", "Potency": "inconclusive [activator, partial curve]"}
{"molecule": "COC(=O)c1ccc(C)c(NC(=S)NCc2ccc(Cl)cc2)c1", "Potency": "inconclusive [activator, single point]"}
{"molecule": "CCOC(=O)c1c(-c2ccccc2)csc1NC(=O)C(C)NCCCN1CCOCC1", "note": "(configuration not stated)", "growth rescue (activation)": "inactive: -17.6%"}
{"molecule": "CCOc1ccccc1CNC(=O)c1sc2ncccc2c1-n1cccc1", "growth rescue (activation)": "inactive: 7.09%"}
{"molecule": "O=C1c2cccc3c(N4CCCCC4)ccc(c23)C(=O)N1CCO", "Potency": "inconclusive [activator, single point]"}
{"molecule": "CC(C)NC(=O)NC(=O)COc1ccc(Br)cc1Br", "Potency": "inconclusive [activator, single point]"}
{"molecule": "S=C1N(c2ccccc2)C(c2ccc(Cl)cc2)N2CCCN12", "note": "(configuration not stated)", "Potency": "inconclusive [activator, single point]"}
{"molecule": "Clc1ccc(C2=CC(c3ccco3)n3ncnc3N2)cc1", "note": "(configuration not stated)", "Potency": "inconclusive [activator, single point]"}
{"molecule": "O=C(C1=NN(c2ccccc2)C2C(=O)N(c3ccccc3Cl)C(=O)C12)c1ccccc1", "note": "(configuration not stated)", "Potency": "inconclusive [activator, single point]"}
{"molecule": "CCCCCC(=O)Nc1cccc(C2=NOC3(C2)C[C@@H](C(N)=O)N(C(=O)c2ccc(Cl)cc2)C3)c1", "note": "(some centres not stated)", "Potency": "inconclusive [activator, partial curve]"}
{"molecule": "CCOC(=O)C(=NCCOC)NNc1cc(Cl)ccc1Cl", "Potency": "inconclusive [activator, partial curve]"}
{"molecule": "Cc1sc2ccccc2[n+]1CC(=O)c1ccccc1", "Potency": "active: 11.2 µM"}
{"molecule": "COc1ccc(CNC(=O)COC(=O)C2CCC(C(C)(C)C)CC2)cc1", "note": "(configuration not stated)", "Potency": "inconclusive [activator, single point]"}
{"molecule": "Cc1cccc(-c2cc3nc4c(c(N5CCCC(O)C5)n3n2)CCC4)c1", "note": "(configuration not stated)", "Potency": "inconclusive [activator, single point]"}
{"molecule": "N#CC(C#N)=C1C=CC=CN1/C(=C\\c1ccccc1)C(=O)c1cccs1", "Potency": "active: 4.47 µM"}
{"molecule": "C=C(C)[C@H]1CC=C(C)C(=O)C1", "Potency": "inconclusive [activator, partial curve]"}
{"molecule": "Cc1ccc(NC(=O)C(=O)NNC(=O)c2cccs2)cc1", "growth rescue (activation)": "inactive: 2.76%"}
{"molecule": "CCOc1ccc(N=Cc2ccc([N+](=O)[O-])cc2)c(O)c1", "Potency": "inconclusive [activator, single point]"}
{"molecule": "CC1N=C2c3ccccc3N=C(SCC(=O)NCCc3ccc(Cl)cc3)N2C1=O", "note": "(configuration not stated)", "growth rescue (activation)": "inactive: 17.8%"}
{"molecule": "Cn1ccc(C(=O)Nc2sc3c(c2C#N)CCC3)n1", "growth rescue (activation)": "inactive: 9.91%"}
{"molecule": "Cc1cc(NC(=O)CSCc2ccccc2C)no1", "Potency": "inconclusive [activator, partial curve]"}
{"molecule": "CCC(=O)NC(Cc1ccccc1)c1nc2ccccc2[nH]1", "note": "(configuration not stated)", "growth rescue (activation)": "inactive: 6.86%"}
{"molecule": "Cc1cccc(Nc2ncnc3onc(-c4ccc(Cl)cc4)c23)c1C", "Potency": "inconclusive [activator, partial curve]"}
{"molecule": "CCCCSc1nnc(CNC(=O)C23CC4CC(CC(C4)C2)C3)n1Cc1ccccc1", "Potency": "inconclusive [activator, partial curve]"}
{"molecule": "Cc1cccc(N2C(=O)C(Oc3ccc(Cl)cc3Cl)C2C=O)c1C", "note": "(configuration not stated)", "Potency": "active: 15.8 µM"}
{"molecule": "COc1cccc(NCc2cccn2-c2nnc(N3CCC(C)CC3)s2)c1", "Potency": "inconclusive [activator, single point]"}
